PubChem BioAssay (Tox21)
The inconclusive results got no clear call from the source; some entries with a clear call stand among them for comparison. For part of these data: Potencies of inconclusive entries are left out as doubtful fits. Active and inactive are the calls of the source. Unless noted, calls follow the shape of the dose curve; as a rule, active = well fitted curve in the direction sought with a large enough effect in the repeat runs; inconclusive = weak or mixed curves; inactive = no such curve, though single readings can be large; an effect the other way counts as inactive or inconclusive.

Tests used:
[1] = qHTS assay to identify small molecule antagonists of the glucocorticoid receptor (GR) signaling pathway - cell viability counter screen (AID 720693); conditions: GR-bla HeLa viability, CellTiter-Glo luminescence, 18 h, with 5 nM dexamethasone present; viability change, negative = cytotoxic: at 58.5 µM (top of the series); also: % is scaled to controls: 0 for no effect and ±100 for the full control effect; nearly all actives have a fitted effect of over 55% in size
[2] = molecular target: Peroxisome proliferator-activated receptor gamma (Homo sapiens) (UniProt P37231); experiment: qHTS assay to identify small molecule antagonists of the peroxisome proliferator-activated receptor gamma (PPARg) signaling pathway (AID 743191; calls by dose curve; also: % is scaled to controls: 0 for no effect and ±100 for the full control effect; nearly all actives have a fitted effect of over 30% in size); conditions: HEK293H PPARg-UAS-bla, beta-lactamase ratio, antagonist, 17 h; ratio activity, negative = inhibition: at 62.6 µM (top of the series) unless noted
UniProt P37231, sequence (P37231 whole entry, looked up): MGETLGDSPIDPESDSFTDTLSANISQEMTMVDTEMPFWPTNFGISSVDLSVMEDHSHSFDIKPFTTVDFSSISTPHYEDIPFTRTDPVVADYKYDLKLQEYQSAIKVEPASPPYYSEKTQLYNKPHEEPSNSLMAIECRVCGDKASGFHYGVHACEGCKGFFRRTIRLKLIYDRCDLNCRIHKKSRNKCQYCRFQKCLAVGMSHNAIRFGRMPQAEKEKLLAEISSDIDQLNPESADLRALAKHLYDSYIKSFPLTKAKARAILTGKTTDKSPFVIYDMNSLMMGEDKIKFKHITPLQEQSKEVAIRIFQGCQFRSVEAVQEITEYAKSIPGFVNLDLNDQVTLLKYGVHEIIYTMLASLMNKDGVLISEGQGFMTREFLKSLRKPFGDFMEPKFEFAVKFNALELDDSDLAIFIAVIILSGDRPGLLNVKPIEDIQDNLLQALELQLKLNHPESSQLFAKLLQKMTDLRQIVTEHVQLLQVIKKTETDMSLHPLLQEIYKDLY
Method in brief: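 GeneBLAzer PPARg UAS-bla HEK293H cells carrying a UAS-driven beta-lactamase reporter were plated at 3000 cells/well, preincubated 5 h at 37C, then given compound for 17 h at 37C; LiveBLAzer B/G FRET substrate was read after 1 h at room temperature.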

[3] = qHTS assay for small molecule agonists of the antioxidant response element (ARE) signaling pathway (AID 743202; active = well fitted activation curve with a large enough effect in the signal ratio in the repeat runs, not every such curve was filed as active; inconclusive = weak or mixed curves, or effect the other way; inactive = no such curve, though single readings can be large or run the other way; the % refers to the signal ratio; also: % is scaled to controls: 0 for no effect and ±100 for the full control effect); conditions: HepG2 ARE-bla reporter, beta-lactamase FRET, 16 h; activation: at 73.3 µM (top of the series) unless noted
Method in brief: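 Compounds delivered in DMSO to ARE-bla HepG2 cells (2,000 cells/well, pre-incubated 5 h) and left 16 h at 37 C. LiveBLAzer B/G FRET substrate then added for 2 h at RT before fluorescence reading.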

[4] = molecular target: Vitamin D3 receptor (Homo sapiens) (UniProt P11473); experiment: qHTS assay to identify small molecule antagonists of the vitamin D receptor (VDR) signaling pathway (AID 743223; active = well fitted inhibition curve with a large enough effect in the signal ratio in the repeat runs, not every such curve was filed as active; inconclusive = weak or mixed curves, or effect the other way; inactive = no such curve, though single readings can be large or run the other way; the % refers to the signal ratio; also: % is scaled to controls: 0 for no effect and ±100 for the full control effect); conditions: VDR-UAS-bla HEK293T, beta-lactamase FRET ratio, 16 h; activity change, negative = inhibition: at 61 µM (top of the series) unless noted
UniProt P11473, sequence (P11473 whole entry, looked up): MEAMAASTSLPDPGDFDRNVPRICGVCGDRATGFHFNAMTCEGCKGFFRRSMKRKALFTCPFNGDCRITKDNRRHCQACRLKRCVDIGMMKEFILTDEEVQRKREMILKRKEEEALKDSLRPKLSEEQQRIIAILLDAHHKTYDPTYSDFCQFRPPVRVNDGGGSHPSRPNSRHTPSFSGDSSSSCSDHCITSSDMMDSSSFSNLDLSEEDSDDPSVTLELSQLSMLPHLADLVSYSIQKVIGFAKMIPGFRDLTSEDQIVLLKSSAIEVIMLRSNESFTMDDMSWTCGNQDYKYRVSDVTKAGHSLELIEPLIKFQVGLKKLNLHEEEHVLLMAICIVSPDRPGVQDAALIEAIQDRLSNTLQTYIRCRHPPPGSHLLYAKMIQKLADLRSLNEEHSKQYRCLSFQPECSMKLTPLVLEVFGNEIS
Method in brief: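 Beta-lactamase reporter read-out: FRET substrate fluorescence after 2 h at room temperature, following 16 h exposure of VDR-bla cells to test compound plus 3 nM (final) 1alpha,25-dihydroxyvitamin D3 agonist at 37C.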

[5] = Caspase-3/7 induction in CHO-K1 cells by small molecules, qHTS cell viability counter screen (AID 1346979); also: % is scaled to controls: 0 for no effect and ±100 for the full control effect; nearly all actives have a fitted effect of over 35% in size
Method in brief: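 CHO-K1 wt, 1,500 cells/well; 5hr pre-incubation 37C/5% CO2; compound pin transfer (DMSO); 16hr exposure; CellTiter-Fluor added, 1hr, fluorescence read.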

[6] = molecular target: Cytochrome P450 1A2 (Homo sapiens) (UniProt P05177); experiment: Cytochrome P450 Family 1 Subfamily A Member 2 (CYP1A2) small molecule antagonists: luciferase reporter qHTS assay (AID 1671199); also: nearly all actives have a fitted effect of over 50% in size; also: potency is read from the fitted curve at half-maximal effect
UniProt P05177, sequence (P05177 whole entry, looked up): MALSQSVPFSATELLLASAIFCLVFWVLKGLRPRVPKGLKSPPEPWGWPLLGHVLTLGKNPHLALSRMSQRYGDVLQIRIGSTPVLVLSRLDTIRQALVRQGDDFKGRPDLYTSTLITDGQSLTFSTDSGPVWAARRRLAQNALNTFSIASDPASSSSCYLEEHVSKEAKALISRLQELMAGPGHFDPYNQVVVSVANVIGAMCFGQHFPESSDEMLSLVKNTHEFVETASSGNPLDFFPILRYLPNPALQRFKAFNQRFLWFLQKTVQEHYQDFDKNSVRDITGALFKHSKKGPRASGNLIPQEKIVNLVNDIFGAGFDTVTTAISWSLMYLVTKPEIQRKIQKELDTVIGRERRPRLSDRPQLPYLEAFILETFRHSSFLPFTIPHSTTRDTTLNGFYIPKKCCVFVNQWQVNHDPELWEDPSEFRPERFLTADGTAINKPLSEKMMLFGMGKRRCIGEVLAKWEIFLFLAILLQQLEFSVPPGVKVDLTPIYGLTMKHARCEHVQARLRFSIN
Method in brief: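 CYP1A2 turnover of a luminogenic substrate was quantified after 1 h with NADPH regeneration at room temperature. Furafylline served as positive control.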

[7] = qHTS assay to identify small molecule antagonists of the vitamin D receptor (VDR) signaling pathway - cell viability counter screen (AID 743225); conditions: VDR-bla HEK293T viability, CellTiter-Glo luminescence, 16 h; viability change, negative = cytotoxic: at 61 µM (top of the series) unless noted; also: potency is read from the fitted curve at half-maximal effect; nearly all actives have a fitted effect of over 50% in size
Method in brief: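 Viability counter screen run in the same wells as the beta-lactamase reporter assay: HEK 293T VDR-UAS-bla cells, 16 h compound exposure at 37C with 3 nM (final) 1-alpha,25-dihydroxyvitamin D3. CellTiter-Glo luminescence, 30 min, room temperature.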

[8] = molecular target: Aromatase (Homo sapiens) (UniProt P11511); experiment: qHTS assay to identify aromatase inhibitors (AID 743083); also: % is scaled to controls: 0 for no effect and ±100 for the full control effect; nearly all actives have a fitted effect of over 55% in size
UniProt P11511, sequence (P11511 whole entry, looked up): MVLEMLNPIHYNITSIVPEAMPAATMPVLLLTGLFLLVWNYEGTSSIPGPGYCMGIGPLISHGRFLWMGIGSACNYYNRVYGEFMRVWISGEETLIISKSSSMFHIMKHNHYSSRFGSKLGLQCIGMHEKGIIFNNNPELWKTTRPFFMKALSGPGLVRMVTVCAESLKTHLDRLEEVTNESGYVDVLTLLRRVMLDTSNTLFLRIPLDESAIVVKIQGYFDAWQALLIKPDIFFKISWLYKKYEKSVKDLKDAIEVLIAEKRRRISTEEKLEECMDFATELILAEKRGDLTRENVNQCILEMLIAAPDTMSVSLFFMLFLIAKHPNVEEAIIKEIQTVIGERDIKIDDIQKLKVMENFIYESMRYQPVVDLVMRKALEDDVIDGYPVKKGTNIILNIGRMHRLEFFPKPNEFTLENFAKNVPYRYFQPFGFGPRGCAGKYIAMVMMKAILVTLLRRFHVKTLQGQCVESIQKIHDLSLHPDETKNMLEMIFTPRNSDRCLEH

[9] = molecular target: Estrogen receptor beta (Homo sapiens) (UniProt Q92731); experiment: qHTS assay to identify small molecule agonists of the estrogen receptor beta (ER-beta) signaling pathway (AID 1259377; active = well fitted activation curve with a large enough effect in the signal ratio in the repeat runs, not every such curve was filed as active; inconclusive = weak or mixed curves, or effect the other way; the % refers to the signal ratio; also: % is scaled to controls: 0 for no effect and ±100 for the full control effect); conditions: ER-beta-UAS-bla HEK293T, beta-lactamase FRET ratio, 16 h; activation: at 92.4 µM (top of the series) unless noted
UniProt Q92731, sequence (Q92731 whole entry, looked up): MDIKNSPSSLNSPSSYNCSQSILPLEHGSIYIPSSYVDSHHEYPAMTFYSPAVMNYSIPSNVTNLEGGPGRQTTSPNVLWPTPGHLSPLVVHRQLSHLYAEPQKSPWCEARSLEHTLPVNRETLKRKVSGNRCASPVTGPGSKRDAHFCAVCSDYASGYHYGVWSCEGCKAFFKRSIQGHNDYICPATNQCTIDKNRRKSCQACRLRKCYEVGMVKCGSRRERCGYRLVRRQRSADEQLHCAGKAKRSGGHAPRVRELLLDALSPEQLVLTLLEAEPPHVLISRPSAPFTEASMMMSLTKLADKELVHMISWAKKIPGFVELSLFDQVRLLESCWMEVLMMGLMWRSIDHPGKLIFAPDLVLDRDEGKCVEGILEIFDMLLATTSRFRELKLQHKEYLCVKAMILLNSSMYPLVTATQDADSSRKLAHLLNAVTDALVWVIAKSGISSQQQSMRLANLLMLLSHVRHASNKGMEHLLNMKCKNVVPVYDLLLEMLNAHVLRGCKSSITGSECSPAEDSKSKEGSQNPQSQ
Method in brief: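 Beta-lactamase reporter readout: fluorescence of LiveBLAzer B/G FRET substrate after 2 h at room temperature, following 16 h compound treatment of ER-beta-UAS-bla HEK293T cells at 37C in 2% charcoal-stripped FBS medium.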

[10] = qHTS assay to identify small molecule antagonists of the sonic hedgehog signaling (Shh) pathway (AID 1259369; calls by dose curve; also: potency is read from the fitted curve at half-maximal effect; nearly all actives have a fitted effect of over 45% in size)
Method in brief: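 Conditioned medium drives Shh signalling in 3T3Gli1-Luc cells; compounds in DMSO co-applied, 24hr at 37 C, then luciferase luminescence.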

[11] = molecular target: Cytochrome P450 2C9 (Homo sapiens) (UniProt P11712); experiment: Cytochrome P450 Family 2 Subfamily C Member 9 (CYP2C9) small molecule antagonists: luciferase reporter qHTS assay (AID 1671198); also: % is scaled to controls: 0 for no effect and ±100 for the full control effect; nearly all actives have a fitted effect of over 50% in size
UniProt P11712, sequence (P11712 whole entry, looked up): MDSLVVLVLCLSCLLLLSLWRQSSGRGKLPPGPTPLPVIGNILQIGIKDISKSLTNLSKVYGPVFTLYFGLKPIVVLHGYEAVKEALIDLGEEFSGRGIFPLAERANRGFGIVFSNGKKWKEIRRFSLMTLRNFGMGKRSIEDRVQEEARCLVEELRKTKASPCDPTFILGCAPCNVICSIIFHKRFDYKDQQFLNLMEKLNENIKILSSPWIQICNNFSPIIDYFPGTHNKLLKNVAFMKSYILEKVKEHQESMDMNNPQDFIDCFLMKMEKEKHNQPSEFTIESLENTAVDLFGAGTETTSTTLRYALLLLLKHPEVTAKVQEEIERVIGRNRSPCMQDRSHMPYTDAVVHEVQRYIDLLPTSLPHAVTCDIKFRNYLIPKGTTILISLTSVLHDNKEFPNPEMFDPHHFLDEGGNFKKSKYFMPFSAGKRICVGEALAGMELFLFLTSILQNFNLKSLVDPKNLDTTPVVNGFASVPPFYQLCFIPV
Method in brief: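 CYP2C9 activity was measured with a P450-Glo proluciferin substrate. Enzyme–substrate mix was held with compound for 10 min at room temperature, then NADPH regeneration solution was added for 1 h at 37C. Luciferin product was read as luminescence.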

[12] = molecular target: Androgen receptor (Homo sapiens) (UniProt P10275); experiment: qHTS assay to identify small molecule antagonists of the androgen receptor (AR) signaling pathway (AID 743035; active = well fitted inhibition curve with a large enough effect in the signal ratio in the repeat runs, not every such curve was filed as active; inconclusive = weak or mixed curves, or effect the other way; inactive = no such curve, though single readings can be large or run the other way; the % refers to the signal ratio; also: % is scaled to controls: 0 for no effect and ±100 for the full control effect); conditions: HEK293 AR-UAS-bla, R1881-stimulated, beta-lactamase FRET, 16 h; activity change, negative = inhibition: at 58.5 µM (top of the series) unless noted
UniProt P10275, sequence (P10275 whole entry, looked up): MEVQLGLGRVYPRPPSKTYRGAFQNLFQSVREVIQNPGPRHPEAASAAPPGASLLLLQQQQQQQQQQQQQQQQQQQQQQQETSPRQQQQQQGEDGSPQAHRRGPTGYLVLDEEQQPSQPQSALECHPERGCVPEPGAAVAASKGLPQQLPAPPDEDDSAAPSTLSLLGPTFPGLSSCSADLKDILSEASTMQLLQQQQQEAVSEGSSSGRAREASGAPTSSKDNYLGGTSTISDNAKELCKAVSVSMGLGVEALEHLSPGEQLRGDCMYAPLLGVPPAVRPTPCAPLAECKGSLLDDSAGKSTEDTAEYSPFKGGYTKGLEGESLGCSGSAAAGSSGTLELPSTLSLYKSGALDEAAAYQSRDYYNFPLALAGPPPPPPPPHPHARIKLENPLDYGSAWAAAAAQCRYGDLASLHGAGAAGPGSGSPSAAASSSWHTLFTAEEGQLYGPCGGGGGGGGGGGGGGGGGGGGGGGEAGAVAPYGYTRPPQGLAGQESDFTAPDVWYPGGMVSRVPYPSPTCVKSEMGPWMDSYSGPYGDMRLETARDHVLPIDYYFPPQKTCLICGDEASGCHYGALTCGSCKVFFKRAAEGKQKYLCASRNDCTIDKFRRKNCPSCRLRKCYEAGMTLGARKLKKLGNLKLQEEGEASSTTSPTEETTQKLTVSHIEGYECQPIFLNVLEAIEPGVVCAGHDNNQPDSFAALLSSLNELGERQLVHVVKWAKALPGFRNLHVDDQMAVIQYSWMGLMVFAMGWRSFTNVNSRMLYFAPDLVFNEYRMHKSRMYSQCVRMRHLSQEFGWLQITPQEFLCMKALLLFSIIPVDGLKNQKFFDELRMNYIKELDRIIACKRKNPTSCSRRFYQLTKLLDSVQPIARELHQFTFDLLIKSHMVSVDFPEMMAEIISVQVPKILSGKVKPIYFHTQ
Method in brief: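 Using qHTS, AR-UAS-bla GripTite HEK293 cells received compound, then R1881, and were cultured 16 h at 37C/5% CO2 before a 2 h room-temperature LiveBLAzer B/G FRET substrate step and fluorescence measurement.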

[13] = molecular target: Androgen receptor (Homo sapiens) (UniProt P10275); experiment: qHTS assay to identify small molecule agonists of the androgen receptor (AR) signaling pathway (AID 743036; active = well fitted activation curve with a large enough effect in the signal ratio in the repeat runs, with a control signal flat, not every such curve was filed as active; inconclusive = weak or mixed curves, or effect the other way; inactive = no such curve, though single readings can be large or run the other way; the % refers to the signal ratio; also: % is scaled to controls: 0 for no effect and ±100 for the full control effect); conditions: HEK293 AR-UAS-bla GripTite, beta-lactamase FRET ratio, 16 h; activation: at 62.4 µM (top of the series) unless noted
Method in brief: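 AR-bla HEK293 cells, 2,000/well; 4 h preincubation 37C/5% CO2; compound (DMSO) 16 h at 37C; LiveBLAzer B/G FRET substrate 2 h RT; fluorescence intensity read-out.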
Tags tell the direction and shape of the fitted curve.

For `NS(=O)(=O)c1cc2c(cc1Cl)NC(CSCc1ccccc1)=NS2(=O)=O`, the Potency [1] was “inactive”, the ratio activity, negative = inhibition [2] was inconclusive: -2.17% and the activation [3] was inconclusive: -4.89%. For the same compound, the Potency [4] was “inactive”, the Potency [5] was “inactive” and the Potency [6] was “inactive”.

With `O=P(O)(OCc1ccccc1)OCc1ccccc1` the ratio activity, negative = inhibition [2] was inconclusive: -29.8%, the activation [3] was inconclusive: -1.05% and the Potency [7] was inconclusive [cytotoxic, full curve, poor fit].

With `OC/C=C/c1ccccc1` the Potency [8] was “inactive”, the Potency [4] was “inactive” and the activation [9] was inconclusive: 7.93%. For the same compound, the Potency [6] was inconclusive [inhibitor, partial curve].

With `CCOC(=O)c1ccccc1O` the ratio activity, negative = inhibition [2] was inconclusive: 9.39%, the activation [3] was inconclusive: -7.58% and the Potency [10] was inconclusive [inhibitor, single point]. The Potency [9] was “inactive” and the Potency [11] was “inactive”.

In the case of `CC/C=C\CC1=C(C)CCC1=O`, the activity change, negative = inhibition [12] is reported as inconclusive: 30.5%, the Potency [13] is reported as “inactive” and the Potency [4] is reported as “inactive”. For the same compound, the Potency [7] was inconclusive [cytotoxic, single point], the Potency [9] was “inactive” and the Potency [6] was active: 31700 nM.
